The supplement of paper PMC12217912
The other results are listed elsewhere or left out. Sequences were assembled here from the parent chain. Inactive controls read about 0.05.

B1: TEV protease; numbered along this chain (parent)
chain: MGESLFKGPRDYNPISSSICHLTNESDGHTTSLYGIGFGPFIITNKHLFRRNNGTLVVQSLHGVFKVKDTTTLQQHLVDGRDMIIIRMPKDFPPFPQKLKFREPQREERICLVTTNFQTKSMSSMVSDTSCTFPSGDGIFWKHWIQTKDGQCGSPLVSTRDGFIVGIHSASNFTNTNNYFTSVPKNFMELLTNQEAQQWVSGWRLNADSVLWGGHKVFMVKPEEPFQPVKEATQL

Variants of: B1
Experiment: raw area under fraction-flipped curve 0-4 h after induction (AUC4h, not background-subtracted), DNA-recorder readout of cleavage of the substrate (dimensionless); higher = more cleavage of the substrate by the protease variant
Conditions: temperature: 34 °C; time window: 0-4 h after rhamnose induction
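Further: Bxb1 expression induced with 0.2% (w/v) L-rhamnose at OD600 near 0.5, cultures sampled hourly, flipped fraction per protease–substrate barcode pair counted by paired-end Illumina sequencing.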

Row | Variant | area with substrate ENLDFQS | area with substrate ENLHFQS | area with substrate ENLMFQS | area with substrate ENLNFQS | area with substrate ENLPFQS | area with substrate ENLWFQS | area with substrate ENLEFQS | area with substrate ENLGFQS | area with substrate ENLQFQS | area with substrate ENLSFQS
1 | E3D | 0.0747 | 0.079 | 0.106 | 0.0723 | 0.0492 | 0.0709 | – | – | – | –
2 | T129K | – | 0.1 | 0.0876 | – | 0.0662 | – | 0.0457 | 0.0714 | 0.0672 | 0.0898
3 | T129H | 0.0668 | 0.0569 | – | – | – | – | – | – | – | –
4 | F92K | 0.0524 | 0.0576 | – | – | – | 0.0687 | – | – | 0.0351 | –
5 | F92L | 0.0572 | – | – | 0.059 | – | – | 0.0513 | – | 0.0613 | –
6 | L99K | 0.055 | – | – | 0.0641 | – | – | – | – | – | –
7 | L99M | 0.0651 | 0.0716 | 0.0666 | – | 0.0443 | 0.0775 | 0.0634 | – | 0.0584 | 0.0601
8 | T181E | 0.0626 | – | – | 0.0579 | 0.0566 | 0.0618 | 0.0659 | – | – | –
9 | G202I | 0.0755 | – | – | 0.0444 | – | – | – | – | 0.0697 | –
10 | Q198S | 0.055 | – | 0.0387 | 0.0709 | 0.0741 | – | – | – | 0.0684 | 0.0624
11 | S135H | 0.0712 | 0.0801 | – | 0.0645 | – | 0.108 | – | – | – | –
12 | K66Q | 0.0742 | – | 0.0791 | – | 0.0623 | – | – | – | 0.0453 | 0.0711
13 | K66A | 0.0469 | 0.0706 | – | 0.0574 | – | – | 0.0631 | – | – | –
14 | S201C | 0.0512 | 0.0673 | – | 0.0606 | 0.0639 | 0.0862 | 0.0629 | – | 0.0797 | 0.0276
15 | I145N | 0.0578 | 0.066 | – | – | 0.0392 | 0.0595 | – | – | – | –
16 | T159P | 0.0657 | 0.0931 | – | – | – | – | – | – | – | –
17 | F6N | 0.054 | 0.0771 | – | – | – | – | – | 0.0536 | – | –
18 | D91T | 0.0954 | – | – | 0.0635 | – | 0.0592 | 0.0792 | – | – | 0.0397
19 | N206R | 0.0762 | 0.0543 | – | 0.0803 | – | 0.0642 | 0.0632 | – | – | 0.0666
20 | F173T | 0.0646 | 0.0855 | – | 0.0753 | 0.0558 | – | 0.0594 | – | – | –
21 | S169K | 0.0542 | – | – | 0.011 | 0.0547 | – | – | – | – | –
22 | R109T | 0.0544 | 0.0714 | – | 0.0574 | – | 0.0724 | 0.0626 | 0.0689 | 0.0653 | 0.0578

Row | Variant | area with substrate ENLDFQS | area with substrate ENLHFQS | area with substrate ENLMFQS | area with substrate ENLNFQS | area with substrate ENLPFQS | area with substrate ENLWFQS | area with substrate ENLEFQS | area with substrate ENLGFQS | area with substrate ENLQFQS | area with substrate ENLSFQS
23 | R109Y | 0.0695 | – | – | 0.0603 | 0.0533 | 0.0949 | – | 0.066 | – | 0.0433
24 | M125W | 0.0774 | 0.0616 | – | 0.0556 | – | – | 0.0522 | – | – | –
25 | Q118C | 0.063 | – | – | – | 0.0282 | – | – | – | 0.07 | 0.0668
26 | Q118W | 0.0706 | – | – | 0.0606 | 0.0667 | – | 0.0698 | – | 0.0511 | –
27 | E103I | 0.0575 | 0.0769 | 0.0796 | 0.0629 | 0.0539 | – | 0.059 | – | 0.0766 | 0.0606
28 | V165I | 0.0399 | – | 0.077 | – | – | 0.0736 | 0.0639 | – | 0.08 | –
29 | G213H | 0.0638 | 0.0661 | – | 0.0604 | – | 0.0522 | – | – | – | 0.0689
30 | G213C | 0.0757 | 0.0614 | – | – | 0.0688 | – | 0.0725 | – | 0.0628 | 0.059
31 | Q97G | 0.077 | – | – | – | – | – | – | – | 0.0643 | –
32 | S209G | 0.0565 | – | – | 0.0503 | 0.0638 | – | 0.109 | – | – | –
33 | S209Y | 0.0868 | – | – | 0.0732 | – | 0.0871 | 0.0567 | – | – | –
34 | S209W | 0.0686 | 0.0893 | – | – | – | – | – | – | – | 0.0763
35 | V113Y | 0.064 | 0.0713 | – | 0.0754 | 0.0061 | 0.0738 | 0.0619 | 0.0428 | – | 0.0629
36 | V113W | 0.057 | 0.0893 | – | – | – | 0.0615 | – | – | – | 0.0623
37 | N177G | 0.0763 | 0.0551 | 0.0523 | 0.0583 | 0.0744 | – | 0.0631 | – | – | 0.0674
38 | L190D | 0.0647 | 0.0551 | – | 0.054 | 0.0646 | 0.0825 | 0.0489 | – | 0.0338 | –
39 | T233Y | 0.0615 | – | 0.0626 | 0.0629 | 0.0516 | – | – | – | – | –
40 | G138L | – | – | – | – | – | – | 0.0493 | – | 0.0425 | 0.0698
41 | K185A | 0.0628 | 0.0806 | 0.0525 | 0.0835 | – | – | – | – | 0.0732 | 0.0641
42 | T44M | 0.0593 | 0.0539 | – | 0.0599 | 0.0531 | – | 0.0073 | – | – | 0.0646
43 | D149I | 0.0398 | – | 0.077 | 0.0701 | – | 0.046 | 0.0595 | – | 0.0769 | 0.0785

Same assay, conditions: temperature: 34 °C; time window: 0-4 h after rhamnose induction

Row | Variant | area with substrate ENLVFQS | area with substrate ENLFFQS | area with substrate ENLKFQS | area with substrate ENLRFQS | area with substrate ENLIFQS | area with substrate ENLLFQS | area with substrate ENLTFQS
44 | T129K | 0.0469 | – | – | – | – | – | –
45 | T129H | – | 0.0561 | 0.0517 | – | – | – | –
46 | F92K | – | 0.0842 | 0.066 | – | – | – | –
47 | F92L | – | 0.0819 | 0.0773 | – | – | – | –
48 | L99K | – | – | – | 0.0476 | – | – | –
49 | L99M | – | 0.0993 | 0.0636 | – | 0.0853 | 0.0726 | –
50 | T181E | – | 0.0525 | – | – | – | – | –
51 | G202I | – | 0.0795 | – | – | – | – | –
52 | Q198S | – | 0.0816 | 0.0567 | 0.0809 | 0.0775 | 0.0465 | –
53 | S135H | – | 0.0579 | 0.0649 | – | – | – | –
54 | K66Q | – | 0.129 | – | 0.0572 | – | 0.0484 | –
55 | K66A | – | – | – | – | – | 0.0751 | –
56 | S201C | 0.0815 | 0.0985 | 0.073 | 0.0968 | – | 0.0634 | –
57 | I145N | – | 0.116 | – | – | – | – | 0.0579
58 | F6N | – | 0.0697 | 0.0581 | 0.0564 | – | – | –
59 | D91T | – | 0.112 | 0.0805 | 0.092 | 0.0733 | – | –
60 | N206R | – | 0.0665 | 0.0726 | 0.0798 | 0.0592 | 0.0627 | –
61 | F173T | – | 0.0719 | 0.0689 | 0.0778 | – | – | –
62 | S169K | 0.0589 | 0.0591 | 0.0546 | – | – | – | –
63 | R109T | – | 0.0871 | 0.0765 | 0.07 | – | 0.0718 | –
64 | R109Y | – | 0.0846 | 0.0933 | – | – | 0.0698 | –

Row | Variant | area with substrate ENLVFQS | area with substrate ENLFFQS | area with substrate ENLKFQS | area with substrate ENLRFQS | area with substrate ENLIFQS | area with substrate ENLLFQS | area with substrate ENLTFQS
65 | M125W | – | 0.0797 | – | – | 0.106 | – | –
66 | Q118C | – | – | – | – | – | 0.0581 | –
67 | Q118W | – | 0.0793 | 0.0709 | 0.0764 | 0.0925 | – | –
68 | E103I | – | 0.0695 | – | 0.0905 | – | – | –
69 | V165I | – | – | 0.0847 | – | – | – | 0.0573
70 | G213H | – | 0.0483 | – | – | – | – | –
71 | G213C | 0.0595 | – | 0.0689 | 0.0627 | – | – | –
72 | Q97G | – | 0.106 | – | 0.0823 | – | – | –
73 | S209G | – | – | 0.0829 | 0.0648 | – | – | –
74 | S209Y | – | – | 0.0984 | – | 0.105 | – | –
75 | S209W | 0.0867 | – | – | 0.0646 | – | – | –
76 | V113Y | – | 0.0857 | 0.0774 | 0.0659 | – | – | 0.0912
77 | V113W | 0.0735 | 0.0657 | 0.0903 | – | – | 0.0597 | –
78 | N177G | – | 0.0625 | – | 0.046 | – | – | –
79 | L190D | 0.097 | – | – | 0.0729 | – | – | 0.0683
80 | T233Y | – | – | 0.0972 | 0.0768 | – | 0.0736 | –
81 | G138L | – | – | – | – | 0.0698 | – | –
82 | K185A | 0.1 | – | 0.0762 | – | 0.0897 | – | –
83 | T44M | 0.0702 | 0.065 | 0.0732 | 0.0549 | 0.0296 | 0.0606 | –
84 | D149I | – | 0.08 | – | – | 0.0547 | 0.0817 | –
